Measurements: the supplement of paper PMC11417369
± gives the standard deviation of the averaged measurements. The list shows a part of the results.

test system: PfAP2-EXP AP2 domain (GST-tagged); experiment: gcPBM binding intensity (ln(normalized median fluorescence intensity)); higher = stronger DNA binding
How it was run: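 Binding intensity is the highest Masliner-normalised natural-log median intensity over replicate spots in either probe orientation. To obtain it, GST-tagged P. falciparum DNA-binding domains made in E. coli were incubated for 1 h on an Agilent 4 × 180k array of primer-extended double-stranded 36-bp intergenic genomic probes plus negative controls. Detection used Alexa488 anti-GST antibody with scanning at 488 nm.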

Sequence	gcPBM binding intensity (ln)
ATTAAAACAAATATGTGTACATAAAAATATATATAT [XGTACX_site8394]	9.145 ± 0.035
TTAATTTTTTTTTTTTGTACTCATATGTAATTCATC [XGTACX_site3071]	8.54 ± 0.57
TGATTGTATTAAAATGCACACATATCAAGAGGAATT [CACACA_site7985]	8.69 ± 0.34
TTAATAAATATGTTTACACACGAAAATACATTTTTT [CACACA_site8245]	8.22 ± 0.4
TTAAAAGTTATGGATACACACATATAAATATAGATT [CACACA_site7175]	8.27 ± 0.4
TCGATTAAAACACAAAAATATAAATACATTGATAAA [TGCATGCA_negctrl_site523]	8.23 ± 0.43
TAATTTTCATAATTTTGTACTTAACGTTTTACCTTG [XGTACX_site8048]	8.79 ± 0.45
ACATATATATATATATATATATATATATATTCTTAA [CACACA_negctrl_site930]	9.01 ± 0.071
CACACGCACGAACACACACACACACGCGCACATATA [CACACA_site6304]	8.86 ± 0.42
ATTTTAATTTTTTAAGTATTATATGAATATTTATTA [TGCATGCA_negctrl_site142]	8.29 ± 0.49
TTCATTCTATAAAACACACAAATATTTTTGTATCCC [CACACA_site6458]	8.57 ± 0.48
ATAGAACAATTCAGAAGTACATAAAAAGAAAAATTT [XGTACX_site3015]	8.74 ± 0.48
TTGGATGATTAAGGGGGACACACGTTTATATATTTA [CACACA_site338]	9.53 ± 0.46
ATATATTTTAATGATACACACAAGAAATAAAATTAC [CACACA_site5671]	8.71 ± 0.42
TTTTGTGATCTTACCACCTTTCATAATATTAATAAA [GTGCAC_negctrl_site360]	8.61 ± 0.31
TTTCACAAATGATATAGTACTTTTTATTATTAACAT [XGTACX_site7976]	8.44 ± 0.4
ACTTTTTTAATGTTACGTACACATAAATAATAATTA [XGTACX_site8092]	8.785 ± 0.007
TAAAAAAAAAAAAAAGTACACACTTATAAAATATTA [CACACA_site872]	8.37 ± 0.5
ATATATTTTTTGAATACACACATATTATATGTAATA [CACACA_site1256]	8.46 ± 0.53

Sequence	gcPBM binding intensity (ln)
GTTACACCAACAAACACACACACACCGACACCCAAA [CACACA_site5361]	8.54 ± 0.44
AAATGTAAAATTTTATGTACATATATTTATATAATA [XGTACX_site3737]	8.55 ± 0.19
ACAAATGAGATTATATGTACACATAACAAATTTACA [XGTACX_site3496]	8.6 ± 0.42
TTTATTTATTTAATTACACACGAACATATAACCATT [CACACA_site7952]	8.6 ± 0.41
ATGTTTTATAAAAGGCGTACACATATATTTAAGTAA [XGTACX_site6231]	8.81 ± 0.3
AAATTGGGGCTTGTTACACACTTAGTGTGAGTTCTA [CACACA_site6417]	8.7 ± 0.49
ATTTATAATATGTATACACACACATATATAAATATA [CACACA_site8729]	8.44 ± 0.33
TATAATCATAAATACACACACATATATATATATATA [CACACA_site5224]	10.2 ± 0.42
TTCTCATCCTTACATACACACACATATATATATATA [CACACA_site7914]	10.3 ± 0.11
GTTCAATTATTTTTATGTACATATATTTTTTTCTTT [XGTACX_site2505]	9.06 ± 0.31
GTTATTAAAAACGGGTGTACACATATATAAATATAT [XGTACX_site1234]	8.92 ± 0.47
TATTTATTATAAAAATTGTATAAAATAATAATGCTC [GTGCAC_negctrl_site456]	8.38 ± 0.36
TTAACCTTTATATAATACGTATCATCCTCATATATA [CACACA_negctrl_site86]	8.95 ± 0.61
TGTATATATTTGTGCACACCAAAGTTTGATTTTATT [CACACA_site1860]	9.48 ± 0.12
ATATAAAATCAACAAAAAAAAAAAATATATATATAT [XGTACX_negctrl_site251]	9.96 ± 0.26
TATTATAACTAAAAAAATCACATAAAATACTTTATT [CACACA_negctrl_site2]	7.92 ± 0.38
TTATATTTTTTAATTACACACAATTCTTATAAATAT [CACACA_site7870]	8.29 ± 0.49
AATATTTGCCTATGTTGTACTGACATTTTTTTAAGT [XGTACX_site6836]	8.71 ± 0.33
TATATACACATGCGCACACACAAGTGGGAAATTTGG [CACACA_site6930]	8.92 ± 0.4

Sequence	gcPBM binding intensity (ln)
TTAAGGATCCACGATACACACATATCATTCAACAAA [CACACA_site1924]	8.44 ± 0.54
TAATAATCCACAAGCACACACACACCCATATATATA [CACACA_site1267]	8.79 ± 0.28
ATATATAATATATGATGTACTTAATAATTTTTTTTT [XGTACX_site5715]	8.17 ± 0.26
CATTTTATTTTAATATGTACTTAAAGAAAAAAAATT [XGTACX_site7670]	8.33 ± 0.41
TTTTGACATTAATTACTATAGTGTTCTTATAAAATT [TGCATGCA_negctrl_site589]	8.48 ± 0.47
AATACATAAAAATAAAAATAAAATATAACTAATATG [CACACA_negctrl_site186]	8.54 ± 0.55
AATCGATAAAATGTTGTGCACATATTTTTATATTTA [GTGCAC_site9651]	8.75 ± 0.13
AAAACTATAATGAATAGTACATAAAAATGGATATAT [XGTACX_site6056]	8.76 ± 0.35
TTATACATATATTTAACACACATTTTATAAAGTGCC [CACACA_site1314]	8.46 ± 0.42
TATCTTATTTTATCTCGTACATAAAATTAAAAAATT [XGTACX_site3636]	8.43 ± 0.31
TTAAATTACTAATGTGCACACATACTAACGTTTAAA [CACACA_site3573]	8.79 ± 0.12
TTTTATTTATTATTTACACACACGTAGGTGTCCATA [CACACA_site430]	8.77 ± 0.33
AATATGTATCCATACACACATACATTTTATTTGCAA [CACACA_site874]	8.65 ± 0.45
TTGTGTTTTATTATTTTATTATTACTATTATAATGT [GTGCAC_negctrl_site484]	8.82 ± 0.42
TAAAAATGGGTATGTACACACTTTATTTTTAATACA [CACACA_site5404]	8.36 ± 0.099
ATAAAACATAAATACATACACACATAATATATATTA [CACACA_site110]	8.61 ± 0.45
AAGGAAGATATATACACACATACAAATATATATATA [CACACA_site2181]	9.69 ± 0.34
ACATATTTAAAAACATGTACAAATATATTTATAATT [XGTACX_site661]	8.38 ± 0.18
